Results: patent publication US20030004179A1, “Treating allergic and inflammatory conditions” (priority 2002, published 2003)

Test system: seasonal allergic rhinitis patients
Test: Double-blinded, randomized clinical trials in seasonal allergic rhinitis patients

Clc1ccc2c(c1)CCc1cccnc1C2=C1CCNCC1 [Desloratadine, desloratadine]
Total symptom scores (5 mg once daily, adult and adolescent seasonal allergic rhinitis patients): significantly reduced | AM NOW total symptom score (24 hours after dose, before next day dose, entire dosage range): Statistically significant (p<0.05) reductions were maintained for the full 24 hour dosing interval | Differences in effectiveness across subgroups defined by gender, age, or race (entire dosage range): no significant differences
